Binding data for eleven molecules are collected here from paper PMC3725416.

By UniProt entry, the sequences of proteins in these tests, tags left out. Where a name states a change or a piece, a line headed by the entry shows the natural chain unless it says otherwise. Chains listed by the source or under a name are the forms on record and can include a tag or linker. Residues count along the entry.
UniProt P19490, residues 19-907: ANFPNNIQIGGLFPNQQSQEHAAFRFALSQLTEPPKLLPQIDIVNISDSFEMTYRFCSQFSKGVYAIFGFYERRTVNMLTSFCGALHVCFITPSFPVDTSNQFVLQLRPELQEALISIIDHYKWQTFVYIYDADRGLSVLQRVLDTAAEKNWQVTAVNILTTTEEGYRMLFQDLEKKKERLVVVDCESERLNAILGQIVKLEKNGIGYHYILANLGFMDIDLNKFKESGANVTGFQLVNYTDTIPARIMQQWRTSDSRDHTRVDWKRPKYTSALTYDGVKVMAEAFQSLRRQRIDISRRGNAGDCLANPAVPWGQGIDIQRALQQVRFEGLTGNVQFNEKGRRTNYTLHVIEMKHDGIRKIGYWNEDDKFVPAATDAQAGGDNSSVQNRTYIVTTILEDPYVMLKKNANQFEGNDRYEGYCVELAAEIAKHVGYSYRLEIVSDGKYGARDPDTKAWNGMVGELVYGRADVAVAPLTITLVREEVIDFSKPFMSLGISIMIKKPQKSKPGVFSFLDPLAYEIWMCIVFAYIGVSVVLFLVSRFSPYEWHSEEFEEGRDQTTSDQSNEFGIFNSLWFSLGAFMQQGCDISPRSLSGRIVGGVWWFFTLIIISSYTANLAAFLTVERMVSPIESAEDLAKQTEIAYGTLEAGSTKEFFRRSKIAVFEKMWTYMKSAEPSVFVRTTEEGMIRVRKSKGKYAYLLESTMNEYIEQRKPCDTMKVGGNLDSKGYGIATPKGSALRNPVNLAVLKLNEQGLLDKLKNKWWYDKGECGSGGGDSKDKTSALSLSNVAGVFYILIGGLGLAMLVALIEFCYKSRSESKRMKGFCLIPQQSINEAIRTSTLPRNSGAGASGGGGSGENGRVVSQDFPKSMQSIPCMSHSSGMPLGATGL
UniProt Q9EP80: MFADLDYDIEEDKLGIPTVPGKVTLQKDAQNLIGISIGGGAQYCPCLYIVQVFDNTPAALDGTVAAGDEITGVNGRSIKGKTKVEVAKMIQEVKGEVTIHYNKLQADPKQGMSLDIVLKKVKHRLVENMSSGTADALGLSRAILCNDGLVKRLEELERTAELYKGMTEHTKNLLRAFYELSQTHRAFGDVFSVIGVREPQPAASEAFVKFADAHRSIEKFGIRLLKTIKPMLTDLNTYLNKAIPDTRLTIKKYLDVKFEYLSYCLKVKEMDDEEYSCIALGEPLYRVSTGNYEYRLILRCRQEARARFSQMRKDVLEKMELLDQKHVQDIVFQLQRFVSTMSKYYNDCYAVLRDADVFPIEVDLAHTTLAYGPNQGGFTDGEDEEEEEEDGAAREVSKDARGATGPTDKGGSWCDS
GST-Δ105-PICK1 (PDZ domain deleted): residues 106-416 of Q9EP80
KD27,28AA-PICK1-FLAG (COS7) (Q9EP80, form named): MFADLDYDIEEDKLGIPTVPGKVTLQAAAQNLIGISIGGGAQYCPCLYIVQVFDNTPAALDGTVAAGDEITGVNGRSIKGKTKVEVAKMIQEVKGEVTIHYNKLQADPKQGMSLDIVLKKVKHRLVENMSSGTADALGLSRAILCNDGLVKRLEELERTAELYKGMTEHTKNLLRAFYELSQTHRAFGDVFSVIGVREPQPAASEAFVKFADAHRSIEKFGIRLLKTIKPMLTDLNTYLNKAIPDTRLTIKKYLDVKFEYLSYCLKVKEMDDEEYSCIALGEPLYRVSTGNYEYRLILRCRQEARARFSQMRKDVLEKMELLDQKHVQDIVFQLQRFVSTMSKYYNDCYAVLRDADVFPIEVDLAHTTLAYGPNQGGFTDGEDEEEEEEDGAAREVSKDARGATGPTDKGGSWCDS
UniProt P19491, residues 22-883: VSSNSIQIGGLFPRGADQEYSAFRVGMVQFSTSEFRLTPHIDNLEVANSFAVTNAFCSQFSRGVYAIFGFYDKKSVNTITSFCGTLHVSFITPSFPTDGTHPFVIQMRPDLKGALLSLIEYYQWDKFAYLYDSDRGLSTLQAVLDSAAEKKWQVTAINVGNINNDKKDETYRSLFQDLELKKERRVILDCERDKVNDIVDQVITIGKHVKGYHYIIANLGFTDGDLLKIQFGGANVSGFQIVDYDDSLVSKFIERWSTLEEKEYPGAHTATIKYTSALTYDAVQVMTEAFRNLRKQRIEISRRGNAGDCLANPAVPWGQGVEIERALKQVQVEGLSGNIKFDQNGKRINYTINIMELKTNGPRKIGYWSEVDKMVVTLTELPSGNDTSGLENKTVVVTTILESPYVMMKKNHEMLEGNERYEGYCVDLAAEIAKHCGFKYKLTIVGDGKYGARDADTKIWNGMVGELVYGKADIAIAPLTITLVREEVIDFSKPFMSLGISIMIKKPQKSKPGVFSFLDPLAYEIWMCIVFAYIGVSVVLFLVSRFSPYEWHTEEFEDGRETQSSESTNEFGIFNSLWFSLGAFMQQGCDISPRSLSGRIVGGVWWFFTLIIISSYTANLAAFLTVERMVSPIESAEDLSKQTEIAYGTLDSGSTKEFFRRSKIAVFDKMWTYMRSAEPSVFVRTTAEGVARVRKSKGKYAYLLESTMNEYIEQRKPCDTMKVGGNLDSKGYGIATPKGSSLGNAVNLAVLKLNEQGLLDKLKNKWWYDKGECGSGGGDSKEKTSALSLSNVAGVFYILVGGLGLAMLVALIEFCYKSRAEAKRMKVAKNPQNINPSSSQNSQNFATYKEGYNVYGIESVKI
UniProt P84077: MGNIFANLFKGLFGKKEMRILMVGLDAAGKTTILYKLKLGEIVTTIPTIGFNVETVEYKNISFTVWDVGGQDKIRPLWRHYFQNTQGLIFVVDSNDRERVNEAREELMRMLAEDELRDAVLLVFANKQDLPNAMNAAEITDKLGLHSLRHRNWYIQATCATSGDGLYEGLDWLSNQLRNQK
UniProt P84079: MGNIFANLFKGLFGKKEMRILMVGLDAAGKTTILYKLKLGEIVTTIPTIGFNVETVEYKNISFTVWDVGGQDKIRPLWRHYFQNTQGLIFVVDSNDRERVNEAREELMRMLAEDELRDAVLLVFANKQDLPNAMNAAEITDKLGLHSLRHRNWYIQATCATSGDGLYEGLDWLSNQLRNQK
UniProt P62330: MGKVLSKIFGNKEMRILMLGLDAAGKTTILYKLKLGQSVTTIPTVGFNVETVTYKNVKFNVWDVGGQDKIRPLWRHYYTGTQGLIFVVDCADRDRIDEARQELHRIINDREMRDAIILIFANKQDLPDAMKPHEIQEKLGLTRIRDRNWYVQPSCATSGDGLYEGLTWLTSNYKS

Results are given in words; binding and its absence hold for the method and conditions named. For some assays here: Binding seen in cells or lysates may run through a third protein. Some binding calls cover weakened binding; strength is not graded here.

For assay [1], the target named is myc-GluA1 (HEK293) (UniProt P19490). The experiment in a line: co-IP; extracts of transfected HEK293 cells (PICK1-flag with myc-GluA2 or myc-GluA1); endogenous Arf1 detected; precipitating antibody not told in the text shown (Figure S1C).
The target in assay [2] is PICK1-flag (HEK293) (UniProt Q9EP80). The assay is described as above.
Assay [3] has as its target PICK1 (endogenous, cultured neurons) (rat (endogenous in cultured neurons)) (UniProt Q9EP80). The experiment in a line: co-IP; cultured neurons untreated or exposed to NMDA for 3 min and chased 7 min, fixed in 1% paraformaldehyde (cross-linking), quenched with glycine, lysed without GTPγS; immunoprecipitated with anti-PICK1.
The target is the same in assay [4]. The experiment in a line: co-IP; cultured neurons lysed with or without GTPγS; extracts immunoprecipitated with anti-PICK1 or control IgG; western blot. For orientation: Immunoblotting shows a protein as a band on a membrane.
In assay [5] the target is GST-PICK1 (UniProt Q9EP80). The experiment in a line: pull-down; extracts of COS7 cells expressing HA- or myc-tagged Arf mutants incubated with GST-PICK1 or GST; western blot with anti-HA or anti-myc and anti-GST; only the target purified.
The target in assay [6] is KD27,28AA-PICK1-FLAG (COS7) (UniProt Q9EP80). The experiment in a line: co-IP; extracts of COS7 cells expressing WT- or KD27,28AA-PICK1-FLAG with HA-Arf1 Q71L, immunoprecipitated with anti-FLAG or control IgG; western blot with anti-HA or anti-FLAG.
Assay [7] has as its target WT-PICK1-FLAG (COS7) (UniProt Q9EP80). The assay is described as above.
The target of assay [8] is GluA2 (endogenous, cultured neurons) (rat (endogenous in cultured neurons)) (UniProt P19491). The experiment in a line: co-IP; extracts of cultured neurons infected with Sindbis virus expressing GFP or pep2-EVKI, immunoprecipitated with anti-GluA2 with or without GTPγS; western blot.
Assay [9] has as its target myc-GluA2 (HEK293) (UniProt P19491). The experiment in a line: co-IP; extracts of transfected HEK293 cells (PICK1-flag with myc-GluA2 or myc-GluA1); endogenous Arf1 detected; precipitating antibody not told in the text shown (Figure S1C).
For assay [10], the target named is GST-Δ105-PICK1 (PDZ domain deleted) (UniProt Q9EP80). The experiment in a line: pull-down; GST-Δ105-PICK1 complexed with his6135Δ-PICK1 immobilised on beads and incubated with GDPβS- or GTPγS-loaded Arf1; western blot; both purified.
Assay [11] concerns the target GST-PICK1 (UniProt Q9EP80). The experiment in a line: pull-down; immobilised GST or GST-PICK1 incubated with purified his6Arf1 (WT or ΔCT) with 0.2 mM GTPγS or 0.2 mM GDPβS, no other proteins; western blot with anti-Arf1 and anti-GST; both purified.
Assay [12] concerns the target GST-Arf1 (UniProt P84077). The experiment in a line: pull-down; extracts of cultured neurons (with or without NMDA for 3 min) incubated with immobilised GST-Arf1; western blot with anti-GIT1 and anti-GST; only the target purified.

As to “Arf1 (endogenous, HEK293 cells) (from UniProt P84077 1-181)”, the binding result is “no binding” in [1] and “binds” in assay [2].
Consider “Arf1 (endogenous, cultured neurons) (from UniProt P84079 1-181)”, for which the binding entry in assay [3] is recorded as “binds”.
For the molecule “GluA2 (endogenous, cultured neurons) (from UniProt P19491 22-883) (receptor)”, the binding result in [4] is given as “binds”.
As for “HA-Arf1 Q71L (constitutively active) (from UniProt P84077 1-181)”, the binding result in assay [5] is reported as “binds”; in assay [6] it was “no binding”; in assay [7] it was “binds”.
Take “PICK1 (endogenous, cultured neurons) (from UniProt Q9EP80 1-416)”: the binding entry in assay [8] is reported as “binds”.
Consider “PICK1-flag (HEK293) (from UniProt Q9EP80 1-416)”, for which, in [9], the binding result is given as “binds”.
“his6-135Δ-PICK1 (PDZ domain only) (from UniProt Q9EP80 1-135) (domain or fragment)”: the binding entry in assay [10] is listed as “binds”.
Turning to “his6-ΔCT-Arf1 (from UniProt P84077 1-177) (domain or fragment)”, in assay [11], the binding entry was “no binding”.
On to “myc-Arf6 Q67L (constitutively active) (from UniProt P62330 1-175)”, for which, in assay [5], the binding entry is listed as “no binding”.
In the case of “myc-Arf6 T27N (dominant-negative) (from UniProt P62330 1-175)”, the binding result in [5] is reported as “no binding”.

B1: GIT1 (endogenous, cultured neurons) (protein, UniProt Q9Z272 1-770)
chain: MSRKGPRAEVCADCSAPDPGWASISRGVLVCDECCSVHRSLGRHISIVKHLRHSAWPPTLLQMVHTLASNGANSIWEHSLLDPAQVQSGRRKANPQDKVHPIKSEFIRAKYQMLAFVHKLPCRDDDGVTAKDLSKQLHSSVRTGNLETCLRLLSLGAQANFFHPEKGTTPLHVAAKAGQTLQAELLVVYGADPGSPDVNGRTPIDYARQAGHHELAERLVECQYELTDRLAFYLCGRKPDHKNGHYIIPQMADRSRQKCMSQSLDLSELAKAAKKKLQALSNRLFEELAMDVYDEVDRRENDAVWLATQNHSTLVTERSAVPFLPVNPEYSATRNQGRQKLARFNAREFATLIIDILSEAKRRQQGKSLSSPTDNLELSARNQSDLDDQHDYDSVASDEDTDQEPLPSAGATRNNRARSMDSSDLSDGAVTLQEYLELKKALATSEAKVQQLMKVNSSLSDELRKLQREIHKLQAENLQLRQPPGPVPVPSLPSERAEHTLMGPGGSTHRRDRQAFSMYEPGSALKPFGGAPGDELATRLQPFHSTELEDDAIYSVHVPAGLYRIRKGVSASSVTFTPSSPLLSSSQEGSRHASKLSRHGSGAESDYENTQSGEPLLGLEGKRFLELSKEDELHAELESLDGDPDPGLPSTEDVILKTEQVTKNIQELLRAAQEFKHDSFVPCSEKIHLAVTEMASLFPKRPALEPVRSSLRLLNASAYRLQSECRKTVPPEPGAPVDFQLLTQQVIQCAYDIAKAAKQLVTITTREKKQ
On to B1, for which the binding entry in assay [12] is reported as “binds”.
